# According to publication PMC12136788:
# The other results are listed elsewhere or left out.
# T1: UNK ZnF1-3 (human, UniProt Q9C0B0 31-174)
# T1 sequence: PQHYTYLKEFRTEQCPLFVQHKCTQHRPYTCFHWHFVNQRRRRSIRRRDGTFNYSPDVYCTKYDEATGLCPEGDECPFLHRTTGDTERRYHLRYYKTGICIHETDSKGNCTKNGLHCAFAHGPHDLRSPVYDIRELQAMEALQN
# B1: 104814329_104835678_237_CDS_ENSMUSG00000062127_ENSMUST00000098763|mouse|control|control (ssRNA)
# RNA: GGGAGUUCUACAGUCCGACGAUCUCUGUGUUGGGCCUUUAAAGCUUCUAUAACAAGGUCUCUUGCUUCAAGUUCUCCUUCAAGGAUACUGAACAGUGUCAGGAGUUCAGGCUUGCUGAGUUUUUCCAGAUUCAUCCUGAAAGUCAACAGAGGAUUGAGCAUCA
# B2: chr16:1859243:1859244:-_ENSG00000063854_ENST00000397353|hu_hu|motif|central (ssRNA)
# RNA: GGGAGUUCUACAGUCCGACGAUCAUCAAGACUGAAUUUCCCGCACGGACCAGCAGGAAAGCCAGUUACCUAAAAGAGCCGGAUCCCCAAAUCCGCUGAAGGUGCAGGGCGGCCUCAGUCCCGGGGCAUCUUGAACUGGUCCUUCAACAGAGGAUUGAGCAUCA
# B3: 109521426_109522411_510_CDS_ENSMUSG00000020612_ENSMUST00000049527|mouse|control|control (ssRNA)
# RNA: GGGAGUUCUACAGUCCGACGAUCCAGCACAUUCUUUUCGAUGGCCUUGGCUAAAGCAGCCAUUGUCUUAUAAUCUUUUGGAAUAACCUUUCUAACGUAGGAGGCAGCAUCCUCCUCAGUGUAAACUUCAGCACUGAUAGCACCCAACAGAGGAUUGAGCAUCA
# B4: chr16:2758876:2758877:+_ENSG00000167977_ENST00000301738|hu_hu|motif|central (ssRNA)
# RNA: GGGAGUUCUACAGUCCGACGAUCAAUUUUAGUGAAUUAAGUCUUAAUAUCUUUAAAUUAAAAAAACCACAAGCCGGUCGGCGGUGUCAAGGUCAAAAAUCAAACAACGCUAAGCGGCCAGCAGCUCCCCAGAGAGGAUGCCCACAACAGAGGAUUGAGCAUCA
# B5: chr9:49312907:49312908:-_ENSMUSG00000039542_ENSMUST00000166811|mus_hu|FALSE|FALSE (ssRNA)
# RNA: GGGAGUUCUACAGUCCGACGAUCAGCUGCAAUUUGGCAUUCGUCCUAUAAAAUAAGAGUCUACGUGGGAAUUGAAUUCAGCUAGAAAGGGUGACACACUUUGCAUACUGAACAAAUACAAAGUGAACAGAAAUUAUAACUUAUCAACAGAGGAUUGAGCAUCA
# B6: chr3:179287964:179287965:+_ENSG00000136518_ENST00000429709|hu_hu|hu_hu_hu_mus_True|68_108 (ssRNA)
# RNA: GGGAGUUCUACAGUCCGACGAUCCUUUAGAGGUGAAAUGGCCUCCAUGUUCUCCCUGGGCACGCGGAGAGCAUUAGUGUCUAUGUAGUAGGUGGGCCCGCCCUGCUUGCCUUUGUCACCAUCAAUCUCCAUCAUUGUACUUCCCAACAGAGGAUUGAGCAUCA
# Biological target: T1, UNK ZnF1-3
# Assay: nsRBNS (natural sequence RNA bind-n-seq); RBNS binding buffer (assumed for nsRBNS): 25 mM Tris pH 7.5, 150 mM KCl, 3 mM MgCl2, 0.01% Triton X-100, 500 ug/ml BSA, 20 U/ml SUPERase-In, 4 C; UNK is unkempt and MSI1 is Musashi-1; names of the RNAs are library labels; protein concentration not given here; high values mean tight binding
row,Binder,binding signal [enrichment R]
1,B1,0.475
2,B2,0.806
3,B3,0.896
4,B4,2.66
5,B5,2.44
6,B6,0.833
